Reference: paper PMC4387718, “In vivo biochemical analyses reveal distinct roles of β-importins and eEF1A in tRNA subcellular traffic” (Genes & Development, 2015)
These are yes or no findings as the source states them, for the method shown. In cells and extracts the contact can be indirect. Some results given as binding are weak or reduced against the parent protein; the word gives no strength. For some assays here: Tags and fused reporters may be left off the sequences shown.

Amino acid sequences for entries named in this document (tags omitted).
UniProt Q06142: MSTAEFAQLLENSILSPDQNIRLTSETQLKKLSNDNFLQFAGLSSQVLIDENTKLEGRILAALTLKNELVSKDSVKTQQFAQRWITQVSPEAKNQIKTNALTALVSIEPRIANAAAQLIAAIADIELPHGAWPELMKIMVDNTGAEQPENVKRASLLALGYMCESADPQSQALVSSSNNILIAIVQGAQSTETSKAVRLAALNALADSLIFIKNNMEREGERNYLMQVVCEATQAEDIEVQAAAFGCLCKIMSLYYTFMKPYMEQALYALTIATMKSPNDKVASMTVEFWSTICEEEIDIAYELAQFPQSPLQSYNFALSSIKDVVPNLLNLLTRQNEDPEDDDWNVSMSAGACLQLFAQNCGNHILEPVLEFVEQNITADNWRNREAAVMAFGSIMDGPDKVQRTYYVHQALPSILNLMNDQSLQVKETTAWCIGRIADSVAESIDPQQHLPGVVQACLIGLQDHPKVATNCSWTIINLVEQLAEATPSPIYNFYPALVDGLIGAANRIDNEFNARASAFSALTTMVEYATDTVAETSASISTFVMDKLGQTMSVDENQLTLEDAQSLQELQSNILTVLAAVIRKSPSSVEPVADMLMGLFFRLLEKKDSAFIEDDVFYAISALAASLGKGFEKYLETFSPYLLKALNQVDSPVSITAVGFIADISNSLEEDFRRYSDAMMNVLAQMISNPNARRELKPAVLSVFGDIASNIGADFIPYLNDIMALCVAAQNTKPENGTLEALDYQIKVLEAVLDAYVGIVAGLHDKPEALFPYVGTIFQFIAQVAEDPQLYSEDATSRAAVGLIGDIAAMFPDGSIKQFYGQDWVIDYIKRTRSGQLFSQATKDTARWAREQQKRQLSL

T1: MORF (His6-HA epitope-ZZ protein A)-tagged Msn5 (S. cerevisiae) (UniProt P52918)
T1 sequence: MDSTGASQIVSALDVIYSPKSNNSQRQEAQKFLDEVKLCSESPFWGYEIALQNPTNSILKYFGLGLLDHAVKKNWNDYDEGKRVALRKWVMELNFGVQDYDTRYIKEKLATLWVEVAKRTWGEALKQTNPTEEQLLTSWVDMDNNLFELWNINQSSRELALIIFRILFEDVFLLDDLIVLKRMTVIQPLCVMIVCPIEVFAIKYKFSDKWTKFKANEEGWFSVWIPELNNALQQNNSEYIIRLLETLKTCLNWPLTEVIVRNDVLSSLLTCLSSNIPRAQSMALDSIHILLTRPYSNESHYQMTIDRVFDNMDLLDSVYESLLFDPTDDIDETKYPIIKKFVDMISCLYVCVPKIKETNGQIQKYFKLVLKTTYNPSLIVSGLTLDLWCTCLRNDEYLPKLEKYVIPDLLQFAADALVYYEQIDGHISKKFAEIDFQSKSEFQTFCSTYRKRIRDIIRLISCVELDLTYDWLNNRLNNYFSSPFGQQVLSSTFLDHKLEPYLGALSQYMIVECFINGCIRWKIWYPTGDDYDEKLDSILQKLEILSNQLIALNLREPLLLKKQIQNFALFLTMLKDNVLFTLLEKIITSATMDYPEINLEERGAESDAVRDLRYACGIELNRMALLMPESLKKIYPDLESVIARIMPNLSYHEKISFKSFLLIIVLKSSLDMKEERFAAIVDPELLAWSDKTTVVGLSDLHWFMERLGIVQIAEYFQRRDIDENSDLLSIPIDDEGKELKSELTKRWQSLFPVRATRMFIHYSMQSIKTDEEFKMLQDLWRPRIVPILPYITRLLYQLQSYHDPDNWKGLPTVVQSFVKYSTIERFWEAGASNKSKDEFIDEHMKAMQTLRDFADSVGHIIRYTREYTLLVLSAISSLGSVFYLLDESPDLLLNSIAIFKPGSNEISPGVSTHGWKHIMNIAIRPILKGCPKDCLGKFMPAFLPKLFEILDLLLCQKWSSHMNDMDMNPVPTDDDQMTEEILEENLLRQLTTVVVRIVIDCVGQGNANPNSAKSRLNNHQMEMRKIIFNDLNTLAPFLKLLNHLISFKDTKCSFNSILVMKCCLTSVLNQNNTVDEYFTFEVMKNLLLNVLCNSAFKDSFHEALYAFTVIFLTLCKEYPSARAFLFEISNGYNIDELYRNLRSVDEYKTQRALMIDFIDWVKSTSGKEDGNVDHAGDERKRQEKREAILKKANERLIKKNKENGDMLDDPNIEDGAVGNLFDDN

T2: MORF (His6-HA epitope-ZZ protein A)-tagged Los1 (S. cerevisiae) (UniProt P33418)
T2 sequence: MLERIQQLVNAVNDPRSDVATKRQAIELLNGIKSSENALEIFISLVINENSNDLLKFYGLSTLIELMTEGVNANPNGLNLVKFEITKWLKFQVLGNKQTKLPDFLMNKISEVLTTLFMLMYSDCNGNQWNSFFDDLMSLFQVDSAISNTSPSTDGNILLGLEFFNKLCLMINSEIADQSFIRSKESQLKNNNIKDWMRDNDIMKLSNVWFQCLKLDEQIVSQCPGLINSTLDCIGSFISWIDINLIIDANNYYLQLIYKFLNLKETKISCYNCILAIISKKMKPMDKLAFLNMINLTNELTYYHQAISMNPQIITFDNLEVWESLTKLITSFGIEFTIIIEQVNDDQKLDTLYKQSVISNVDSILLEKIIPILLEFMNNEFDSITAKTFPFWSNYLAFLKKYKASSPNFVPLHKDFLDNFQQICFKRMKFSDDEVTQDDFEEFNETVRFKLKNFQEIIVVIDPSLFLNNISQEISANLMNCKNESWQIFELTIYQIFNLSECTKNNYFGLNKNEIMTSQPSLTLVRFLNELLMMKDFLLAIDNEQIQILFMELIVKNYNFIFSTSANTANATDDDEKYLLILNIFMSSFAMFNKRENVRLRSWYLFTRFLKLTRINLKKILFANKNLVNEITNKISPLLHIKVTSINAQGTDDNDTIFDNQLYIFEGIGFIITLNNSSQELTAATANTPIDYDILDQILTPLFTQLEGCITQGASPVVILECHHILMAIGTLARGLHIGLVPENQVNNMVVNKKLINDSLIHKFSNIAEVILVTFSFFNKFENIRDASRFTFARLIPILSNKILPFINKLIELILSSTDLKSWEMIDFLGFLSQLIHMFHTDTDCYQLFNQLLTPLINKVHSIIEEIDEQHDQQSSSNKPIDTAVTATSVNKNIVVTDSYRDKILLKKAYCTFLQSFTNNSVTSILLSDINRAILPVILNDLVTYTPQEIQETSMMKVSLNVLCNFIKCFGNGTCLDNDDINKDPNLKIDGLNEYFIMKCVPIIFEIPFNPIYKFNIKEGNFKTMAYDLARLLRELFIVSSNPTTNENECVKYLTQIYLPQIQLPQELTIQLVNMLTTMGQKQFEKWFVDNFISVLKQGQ


What was measured:
[1] = target: ZZ (protein A)-tagged Kap95 (S. cerevisiae) (UniProt Q06142); assay: co-IP; cells with locked RanGTP, formaldehyde cross-linked; extract treated with RNase A prior to purification of the beta-importin on IgG beads; Western blot with anti-eEF1A
[2] = target: ZZ (protein A)-tagged Kap95 (S. cerevisiae) (UniProt Q06142); assay: co-IP; cells with RanGTP-locked mutant, without formaldehyde cross-linking, mock treatment; IgG beads; Western blot with anti-eEF1A
[3] = target: T1, MORF (His6-HA epitope-ZZ protein A)-tagged Msn5 (S. cerevisiae); assay: as above
[4] = target: T1, MORF (His6-HA epitope-ZZ protein A)-tagged Msn5 (S. cerevisiae); assay: condition: only in cells with the RanGDP-locked mutant instead of the RanGTP-locked mutant; co-IP; cells with RanGDP-locked Gsp1-T24N induced 1 h with galactose; formaldehyde cross-linking; tagged beta-importin precipitated from the soluble extract with IgG-conjugated magnetic beads, 30 min at 4°C; Western blot or Sypro Ruby staining
[5] = target: T2, MORF (His6-HA epitope-ZZ protein A)-tagged Los1 (S. cerevisiae); assay: co-IP; cells with RanGTP-locked Gsp1-G21V induced 1 h with galactose; formaldehyde cross-linking; tagged beta-importin precipitated from the soluble extract with IgG-conjugated magnetic beads, 30 min at 4°C; Western blot; also cells in medium with or without amino acids for 1.5 h
[6] = target: ZZ (protein A)-tagged Kap95 (S. cerevisiae) (UniProt Q06142); assay: as above
[7] = target: T1, MORF (His6-HA epitope-ZZ protein A)-tagged Msn5 (S. cerevisiae); assay: as above

| binding [1] | binding [2] | binding [3] | binding [4] | binding [5] | binding [6] | binding [7] | Binder |
| --- | --- | --- | --- | --- | --- | --- | --- |
| no binding | no binding | binds | no binding | no binding | no binding | binds | endogenously 3Myc-tagged Tef1 (natural protein, S. cerevisiae, UniProt P02994 1-458, looked up, Tef1, yeast translation elongation factor 1 alpha (eEF1A), product of TEF1; Detected with anti-eEF1A and anti-Myc; comigrates with untagged Tef2, so the anti-eEF1A signal called Tef1/2 is of both; also called Tef1-Myc; Tef1/2; source: endogenously tagged, S. cerevisiae cell extract) MGKEKSHINVVVIGHVDSGKSTTTGHLIYKCGGIDKRTIEKFEKEAAELGKGSFKYAWVLDKLKAERERGITIDIALWKFETPKYQVTVIDAPGHRDFIKNMITGTSQADCAILIIAGGVGEFEAGISKDGQTREHALLAFTLGVRQLIVAVNKMDSVKWDESRFQEIVKETSNFIKKVGYNPKTVPFVPISGWNGDNMIEATTNAPWYKGWEKETKAGVVKGKTLLEAIDAIEQPSRPTDKPLRLPLQDVYKIGGIGTVPVGRVETGVIKPGMVVTFAPAGVTTEVKSVEMHHEQLEQGVPGDNVGFNVKNVSVKEIRRGNVCGDAKNDPPKGCASFNATVIVLNHPGQISAGYSPVLDCHTAHIACRFDELLEKNDRRSGKKLEDHPKFLKSGDAALVKFVPSKPMCVEAFSEYPPLGRFAVRDMRQTVAVGVIKSVDKTEKAAKVTKAAQKAAKK |
| no binding | no binding | binds | no binding | no binding | no binding | binds | untagged Tef2 (natural protein, S. cerevisiae (endogenous in yeast), UniProt P02994 1-458, looked up, Tef2, yeast translation elongation factor 1 alpha (eEF1A), product of TEF2; Detected with anti-eEF1A; comigrates with Tef1-Myc; also called Tef1/2; eEF1A; source: endogenous, S. cerevisiae cell extract) MGKEKSHINVVVIGHVDSGKSTTTGHLIYKCGGIDKRTIEKFEKEAAELGKGSFKYAWVLDKLKAERERGITIDIALWKFETPKYQVTVIDAPGHRDFIKNMITGTSQADCAILIIAGGVGEFEAGISKDGQTREHALLAFTLGVRQLIVAVNKMDSVKWDESRFQEIVKETSNFIKKVGYNPKTVPFVPISGWNGDNMIEATTNAPWYKGWEKETKAGVVKGKTLLEAIDAIEQPSRPTDKPLRLPLQDVYKIGGIGTVPVGRVETGVIKPGMVVTFAPAGVTTEVKSVEMHHEQLEQGVPGDNVGFNVKNVSVKEIRRGNVCGDAKNDPPKGCASFNATVIVLNHPGQISAGYSPVLDCHTAHIACRFDELLEKNDRRSGKKLEDHPKFLKSGDAALVKFVPSKPMCVEAFSEYPPLGRFAVRDMRQTVAVGVIKSVDKTEKAAKVTKAAQKAAKK |
